# Some of the results follow.
# T1: UNK ZnF1-3 (human, UniProt Q9C0B0 31-174)
# T1 sequence: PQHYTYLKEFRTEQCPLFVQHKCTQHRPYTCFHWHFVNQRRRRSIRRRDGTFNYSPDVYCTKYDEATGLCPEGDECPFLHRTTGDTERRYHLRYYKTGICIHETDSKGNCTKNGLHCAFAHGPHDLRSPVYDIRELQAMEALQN
# B1: chr3:9412954:9412955:+_ENSG00000134077_ENST00000452837|hu_hu|FALSE|FALSE (ssRNA)
# RNA: GGGAGUUCUACAGUCCGACGAUCUGUUGAUACAUCCUCUUUGAUGGCUGGAUUUUCAUAAUAAUCUAAGAUAUGAGAAUCUAAAGCAUGGCUAGUGAACUCUUUUUUAACAUUUCUCUGAUCGAUUUUGACUUCUUGUCCAUUCAACAGAGGAUUGAGCAUCA
# B2: chr15:12740188:12740189:-_ENSMUSG00000022195_ENSMUST00000057256|mus_mus|FALSE|FALSE (ssRNA)
# RNA: GGGAGUUCUACAGUCCGACGAUCUCAGCGAAUAAAUAAAUAAAUCUCAUAUCAUCCAAACCCUUGUUGGGGAAAGAGAAAAAAAAAAAACCCCUCUUACAGAAUCAAAGGCAGCGAUGGGAAGCAAGGAAGAUAACAGACAGUCAACAGAGGAUUGAGCAUCA
# B3: 54649049_54654472_1799_CDS_ENSG00000039123_ENST00000230640|human|control|control (ssRNA)
# RNA: GGGAGUUCUACAGUCCGACGAUCUACAAUUCCUCUAUCAUCCAUUCCUCUCCUUCCAGCACGACCAGACAUCUGAAUGUAUUCACCAGAAGAAAUCCAUCGGAAAUCCUUCCCAUCAAAUUUGCGGGCAUUUGUAAAUAAAACCAACAGAGGAUUGAGCAUCA
# B4: 10814327_10814447_6042_3pUTR_ENSMUSG00000024294_ENSMUST00000052838|mouse|control|control (ssRNA)
# RNA: GGGAGUUCUACAGUCCGACGAUCGCUGUCCAUACUAUACAUAACAUAAAUGGCCCAGUGACAAAGAGAAAGCUGUAAGUCCCCAGCACUACAGAGACUUGACGGCUUCUCUCUCCUAAGCUAGUGUGCUCUGCUCUGCGUGGACAACAGAGGAUUGAGCAUCA
# B5: chr3:159597999:159598000:+_ENSMUSG00000028173_ENSMUST00000068952|mus_hu|FALSE|FALSE (ssRNA)
# RNA: GGGAGUUCUACAGUCCGACGAUCAAGCAAGAAGUUAAAAAAGCUUUUCAGACCCGAAGGCCAUUUAAUACAGUAAAUCUUACUUGGGUAGUUUAGCAAACAUUUUUUAAAACCCACAUCCAACAGAUUGGUUAGUAUUAGAUACAACAGAGGAUUGAGCAUCA
# B6: chrX:100668114:100668115:+_ENSG00000126945_ENST00000316594|hu_hu|motif|central (ssRNA)
# RNA: GGGAGUUCUACAGUCCGACGAUCUCCCAUCAUUUGGCUACCAUAAGCGCCACCACUUGCCCCUGCUGUAGAAUUCAAAAAAAGUUCGGCAUAGCUGUGAUCGUAAGCACCCCCACUUGUUCCUGCAGUAGAAUUUAAGAAGAGCAACAGAGGAUUGAGCAUCA
# B7: chr16:46708560:46708561:-_ENSG00000069329_ENST00000568784|perfect_dup|motif|central (ssRNA)
# RNA: GGGAGUUCUACAGUCCGACGAUCAAAAAGUUUAAUCUCAGCUGGAAUUCCGGGUCCAUCUUCACGAUGAGCAAAUAAAGCGGAUCUGUCAAUUAAAGCAAUGAUUAUGUUUUUCACAUUUACAUUUUGGUGUAAUUCAGCACACAACAGAGGAUUGAGCAUCA
# B8: 93591217_93594293_1026_CDS_ENSMUSG00000058013_ENSMUST00000074733|mouse|control|control (ssRNA)
# RNA: GGGAGUUCUACAGUCCGACGAUCUUCGUAGGUCUCCUGAAGACUGAAGGGCUUGCUGUCGGGGUCCGUGUCCUUGAAGCCCAUCUCCUCAAGCUUGCAGCGCCGAUACAACUCGUAGUGGCGAGUGUGCGUCUGCUCUCGCAGCAACAGAGGAUUGAGCAUCA
# B9: chr17:57816259:57816260:+_ENSG00000062716_ENST00000262291|hu_hu|FALSE|FALSE (ssRNA)
# RNA: GGGAGUUCUACAGUCCGACGAUCCAGAUAAAGCAGAAAGGUGUGCAGCCCUGUUCCAAGCCCAACAGAAGACAAAAUUCCUAAGCCUAUCCAGUAGGCAUACAAAAGAAACUGUUUCUCUAUACGUUGCACAUACUGUUGAUGCAACAGAGGAUUGAGCAUCA
# B10: chr18:56819859:56819860:+_ENSG00000166562_ENST00000588875|hu_mus|hu_hu_hu_mus_True|8_38 (ssRNA)
# RNA: GGGAGUUCUACAGUCCGACGAUCAACCUUGAUUACUCUGUGAACUAUCGGAAUGUCUCUUCCUUCAACCUUAAAAACAACUAUUUCACCAGCUCUGAUUGGGUCUUCCCGGAAAUUCGUGAGGAACAGGAGGUCUCCUCUGUGCAACAGAGGAUUGAGCAUCA
# B11: 152020827_152021121_235_CDS_ENSMUSG00000025437_ENSMUST00000117492|mouse|control|control (ssRNA)
# RNA: GGGAGUUCUACAGUCCGACGAUCCUGACAAGCGCCGAGAGAUUUCUGUAUCAAGUCCUCUUUCGUUAUUUCACCAACUGAAUCCAAAUGUGGACAAUGAUUUCGAAAAGUCGUCAUUUUCUUACAGUUUUCCUUCUCUUUCUCCAACAGAGGAUUGAGCAUCA
# B12: chr2:47387770:47387771:-_ENSG00000143933_ENST00000272298|hu_mus|hu_hu_hu_mus_True|28_38 (ssRNA)
# RNA: GGGAGUUCUACAGUCCGACGAUCAAGGUUUAAGGACAAUGACAGUAAGAUAAGGGAAGAAAACAUGGAGGAAUGAAGUCCUAAUUACUAUACAUGCAUAUUUUUUUGACAGUAGGGGGGGGAACCUUUUACAGAUAAGUUACACAACAGAGGAUUGAGCAUCA
# B13: chr1:39494447:39494448:+_ENSG00000168653_ENST00000372967|hu_mus|hu_hu_hu_mus_False|38_88 (ssRNA)
# RNA: GGGAGUUCUACAGUCCGACGAUCGCACCGAGCGGCGUUCUUAUAGGGCUGUUCACCGCUUAGGAACAUAAAGUGCCGGUCCAGGCUGAUGCCCAGCCUUUUCUGGAUGUCAAGGAAAGGCAUGGCUCUGCAGUGCCCUUGUCACAACAGAGGAUUGAGCAUCA
# B14: chr12:105536279:105536280:+_ENSG00000136051_ENST00000332180|hu_mus|hu_hu_hu_mus_True|8_8 (ssRNA)
# RNA: GGGAGUUCUACAGUCCGACGAUCAGCACUGAACAUGUAAUGUAAUCUGGCUGCAUCGACAGCAUUUUCAUAUACAUCAUCUAAAUAAAUCGGGAAGACAGCGCGAUGCCAGUAUAAAAAACAGCAGUCACAUUGUGCUUGGACCAACAGAGGAUUGAGCAUCA
# B15: chr4:132324321:132324322:+_ENSMUSG00000028884_ENSMUST00000102561|mus_hu|FALSE|FALSE (ssRNA)
# RNA: GGGAGUUCUACAGUCCGACGAUCACAUCUUGGUCACGAUUCUCCGCAAAGAGGCCGAGAAGGUGCGGGUCUGGGGGAAUAGCGGAAAACCACAGAACGCGGCCGCCACUGCGCCGCUCUGGCUACUUUUCUCUGGCACCACAACAACAGAGGAUUGAGCAUCA
# B16: chr1:58468927:58468928:-_ENSMUSG00000026034_ENSMUST00000148330|mus_mus|mus_mus_mus_hu_False|38_88 (ssRNA)
# RNA: GGGAGUUCUACAGUCCGACGAUCAAUUACUGAAAAAGAUGUUCAUUUAUUUGGUUUUGUACUUAAUGAACCAAAUUACCCAAACAAAAUAAACAUGUUUACAAAUUAAUGUUAAGAAUUUACAAAGCUGUACAAAAUAACUUACAACAGAGGAUUGAGCAUCA
# B17: 121870484_121870604_1008_3pUTR_ENSMUSG00000042719_ENSMUST00000042163|mouse|control|control (ssRNA)
# RNA: GGGAGUUCUACAGUCCGACGAUCGCGCCUGAUGAGCUCCAGCUUAGCUAGGUGUGGGCCUCGGACAUGUCGAGAGCUUUGUGAUGCCUCUGUUAUCCUGUCCUCUAUAAACUUCACAGCAUCUUCUGCAGAGCAGUGUACUUCCAACAGAGGAUUGAGCAUCA
# B18: chr6:114274515:114274516:-_ENSG00000196591_ENST00000368632|hu_hu|FALSE|FALSE (ssRNA)
# RNA: GGGAGUUCUACAGUCCGACGAUCCAUUACACGAUCUGUUGUAUAAAAAGCUUCUUCAACACCAUCACCAUGAUGAAUAUCUAUAUCAAUAUAUAAGACUCUCUGAUGAUACUUUAGUAAUUCAAGGAUGGCAAGCACAAUAUCCAACAGAGGAUUGAGCAUCA
# B19: chr7:149068622:149068623:-_ENSMUSG00000025139_ENSMUST00000001950|mus_hu|mus_mus_mus_hu_False|78_78 (ssRNA)
# RNA: GGGAGUUCUACAGUCCGACGAUCGUGAGGCCUCUGAGUGUGGCUUGUGGUCUGUCCUGUCUGCAGUUUGUUAAUAUCACGGAACAUACCAUCUAGAACGUUCCAGUCCCGCCUGACACCUUCAUUCCCAAUGGAGAAGAAAUCCAACAGAGGAUUGAGCAUCA
# B20: chr2:187370222:187370223:+_ENSG00000065548_ENST00000337859|hu_mus|motif|central (ssRNA)
# RNA: GGGAGUUCUACAGUCCGACGAUCUUUUCCUCUUCUUCCACGCGAGAAAAGACUCUAGAGUGAUUUUGGUAACAUUUGGACCGGGGGCAGAACGCUCUCUUUCAAUUAGAUCUUCUAAUGAGAUUUCAUCUUCCUUCUCUUCUUCAACAGAGGAUUGAGCAUCA
# B21: chr5:134191040:134191041:+_ENSG00000181904_ENST00000394976|hu_mus|motif|central (ssRNA)
# RNA: GGGAGUUCUACAGUCCGACGAUCAAAGGCAGCAGUGCCACAGCCAUAGCCAAGAUCUGCAAGGCGGGACAGAGCUUUAAUGCGGCCUGGAGGUCUCCCUGGGCUGACUUUGUAUCCUGCAGCUUUGGUUGUACCCAAAGGUCUCAACAGAGGAUUGAGCAUCA
# B22: 94592701_94592821_2157_CDS_ENSG00000166025_ENST00000433060|human|control|control (ssRNA)
# RNA: GGGAGUUCUACAGUCCGACGAUCCAGGUACUUCUGCUCCCACUUUGUCAUGUCGGCCUCCAGGGCCAGGAUCCGCUCCUCCUUCUCCCGCACAAGUUCCAGGAGGGCUGGGGCAUUGUAUUCCGGCAUGUUGGCUGGCUGGCCCAACAGAGGAUUGAGCAUCA
# Target: T1, UNK ZnF1-3
# Assay: nsRBNS (natural sequence RNA bind-n-seq); RBNS binding buffer (assumed for nsRBNS): 25 mM Tris pH 7.5, 150 mM KCl, 3 mM MgCl2, 0.01% Triton X-100, 500 ug/ml BSA, 20 U/ml SUPERase-In, 4 C; UNK is unkempt and MSI1 is Musashi-1; names of the RNAs are library labels; protein concentration not given here; high values mean tight binding
row,Binder,binding signal [enrichment R]
1,B1,0.525
2,B2,2.15
3,B3,1.71
4,B4,1.23
5,B5,0.744
6,B6,2.17
7,B7,1.34
8,B8,0.625
9,B9,1.22
10,B10,0.718
11,B11,0.496
12,B12,1.82
13,B13,0.845
14,B14,2.97
15,B15,1.16
16,B16,0.362
17,B17,0.649
18,B18,1.51
19,B19,0.83
20,B20,0.489
21,B21,1.14
22,B22,0.398

# Reference: article PMC12136788
